Experimental data published in a collection of fitness landscapes (doi:10.1016/j.celrep.2020.107928).
In all, about 81,000 sequences were measured (“one-hybrid fitness for binding NBS DNA”: median about -0.1, highest 2% from about 0.36 on). The list shows a part of the results.

B1: Caulobacter ParB omega fusion; a variant is named by its letters at X, in order, B8GW30 (parent)
chain: MESVVVGEPGMSEGRRGLGRGLSALLGEVDAAPAQAPGEQLGGSREAPIEILQRNPDQPRRTFREEDLEDLSNSIREKGVLQPILVRPSPDTAGEYQIVAGERAWRAAQRAGLKTVPIMVRELDDLAVLEIGIIENVQRADLNVLEEALSYKVLMEKFERTQENIAQTIGKSXSHVANXMRLLXLPDEVQSYLVSGELTAXHARAIAAAADPVALAKQIIEGGLSVRETEALARKAPNLSAGKSKGGRPPRVKDTDTQALESDLSSVLGLDVSIDHRGSTGTLTITYATLEQLDDLCNRLTRGI

Variants of: B1
Experiment: one-hybrid fitness for binding NBS DNA (the Noc-binding site; scaled: cognate 1, non-cognate 0); higher = stronger binding
Settings: with NBS DNA site
Procedure, shortened: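 On M9-minus-histidine containing 0.1 mM IPTG and 5 mM 3-AT, E. coli USO cells with a HIS3 reporter, site 19 bp from the promoter, grew 48 hours at 37°C to select Caulobacter ParB libraries randomised at four specificity codons. Plasmids from before and after were Illumina-sequenced, with three replicate libraries pooled and variants under 10 reads left out. Fitness is the log change in variant-to-wild-type read ratio, rescaled against cognate and non-cognate.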

one-hybrid fitness for binding NBS DNA, 0.469:
RYTR

one-hybrid fitness for binding NBS DNA, ≤ 0.2:
RAIG
CPPE
WLLT
STLL
LIRK
MGKF
SWRH
PFQV
PPAV
PLDV
GAFR
PCYW
RGVA
RTIH
TWHS
LPRI
HFAF
YKLA
LCCM
EHSR
HGQG
HRRF
VNMC
AMVR
LSVM
KMPV
PTWR
NASW
DRHT
LYNI
HHGV
VIDW
QVDP
RQQY
YCFG
RCVP
ENGW
MYPC
NFSL
CAAF
LFKK
FAHS
FVSS
YTYW
PEFG
TTWR
PMNC
YELR
IQYR
LEMG
TFQV
RNMK
SAGV
RLMI
VAYC
GVQS
WVTF
RGFF
PIDV
PDRM
SINI
QYLI
RGCP
TVDN
VTYI
NTPM
PSGT
QKTG
PVKE
IPSF
RKFM
QEYI
SVMT
LQHT
FQMS

one-hybrid fitness for binding NBS DNA, 0.353:
QARC
